Structures can show the parent of a compound that is named as a salt. Over roughly 2,800 compounds, “cell viability relative to vehicle” has its median near 1.1; the lowest 2% begin near 0.19. Some of the results follow.
Each compound was assayed on NCI-H2228 parental (assay: cell viability relative to vehicle (fraction of vehicle); NCI-H2228 is an ALK-positive lung cancer line and DTP means drug-tolerant persister; higher = less growth inhibition). Details: 100 nM; treatment time 6 days.
Outline: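 Parental NCI-H2228 cells and drug-tolerant persister cells (made with 1000 nM of a targeted drug for 13 days) were seeded in 384-well plates. The next day, the 3114-agent TargetMol anti-cancer compound library was added at 100 nM, with DMSO as vehicle. After 6 days, ATP was read with the CellTiter-Glo 3D Cell Viability Assay. Each value is cell viability relative to vehicle-treated cells.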

SMILES | cell viability
C[C@@]1(C(=O)Nc2ccc(F)nc2)CCCN1c1nc(Nc2cc(C3CC3)n[nH]2)c2cccn2n1 | 0.596
Clc1ccc(CCC(Cn2ccnc2)Sc2c(Cl)cccc2Cl)cc1 (stereo not drawn) [Butoconazole nitrate] | 1.35
N#Cc1ccc(C(c2ccc(C#N)cc2)n2cncn2)cc1 [Letrozole] | 1.09
COc1ccc([C@@H]2CC(=O)c3c(O)cc(O)cc3O2)cc1O [Hesperetin] | 1.11
COc1cc(N2CCOCC2)ccc1Nc1ncc(Cl)c(Nc2ccccc2NS(C)(=O)=O)n1 | 0.573
C=C1[C@H](OC(=O)/C=C(\C)CC)C[C@@H](C(C)C)[C@@H]2[C@@H]([C@@H](C)OC(C)=O)C(=O)C[C@@H]12 [Tussilagone] | 1.1
Nc1c(CC(=O)O)cccc1C(=O)c1ccccc1 [Amfenac Sodium Monohydrate] | 1.19
N=C1NC(=O)/C(=C/c2ccc(O)cc2)S1 [Mirin] | 1.05
NC(=O)c1ccc(N(C(N)=O)c2c(F)cccc2F)nc1-c1ccc(F)cc1F | 1.14
Oc1cc(O)c2c(c1)O[C@H](c1ccc(O)c(O)c1)[C@@H](O)C2 [Cianidanol] | 1.06
O=c1cc(-c2ccccc2)oc2c(O)c(O)ccc12 [7,8-Dihydroxyflavone] | 1.1
CCN(CC)CCOC(=O)C1(C2CCCCC2)CCCCC1 [Dicyclomine hydrochloride] | 1.47
CCCc1cc(C)[nH]c(=O)c1CNC(=O)c1cc(-c2ccc(N3CCN(C(C)C)CC3)nc2)cc2c1cnn2C(C)C | 1.12
CN[C@@H](C)C(=O)N[C@H](C(=O)N1CCC[C@H]1c1nc(C(=O)c2ccc(F)cc2)cs1)C1CCCCC1 | 1.18
COc1nccc(-c2c(-c3ccc(F)cc3)ncn2C2CCC(O)CC2)n1 (stereo not drawn) | 0.885
COc1c(C)c(C(=O)c2ccc(N)c(C(=O)O)c2)n2ccccc12 | 1.02
O=C1C[C@@H](c2ccccc2)Oc2cc(O)cc(O)c21 [Pinocembrin] | 1.03
COc1ccc(-c2ccc3c(N4CCOC[C@@H]4C)nc(N4CCOC[C@@H]4C)nc3n2)cc1CO | 0.219
COc1cc2ncnc(Sc3nnc(C)s3)c2cc1OC | 0.892
O=C(NC[C@H](O)CN1CCc2ccccc2C1)c1cc(NC2COC2)ncn1 | 0.931
O=C1NC(=O)C(c2cnc3ccccn23)=C1c1cn2c3c(cc(F)cc13)CN(C(=O)N1CCCCC1)CC2 | 0.297
CN(C)C/C=C/C(=O)Nc1ccc(C(=O)Nc2cccc(Nc3ncc(Cl)c(-c4c[nH]c5ccccc45)n3)c2)cc1 | 0.552
Cc1cn[nH]c1 [4-Methylpyrazole] | 1.11
CC1(C)CC[C@]2(C(=O)O)CC[C@]3(C)C(=CC[C@@H]4[C@@]5(C)C[C@@H](O)[C@H](O)C(C)(C)[C@@H]5CC[C@]43C)[C@@H]2C1 [Maslinic acid] | 0.955
Cc1ccc(-c2csc3ncnc(SCCC(=O)O)c23)cc1 | 1.09

SMILES | cell viability
NCCc1c[nH]cn1 [Histamine 2HCl] | 0.967
NCCc1c[nH]cn1 [Histamine] | 1.09
OC(Cn1cncn1)(Cn1cncn1)c1ccc(F)cc1F [Fluconazole] | 1.28
CC(=O)Nc1cccc(-n2c(=O)n(C3CC3)c(=O)c3c(Nc4ccc(I)cc4F)n(C)c(=O)c(C)c32)c1 [Trametinib] | 0.403
C[C@@H]1Cc2c([nH]c3ccccc23)[C@@H](c2c(F)cc(/C=C/C(=O)O)cc2F)N1CC(C)(C)F | 1.15
NC(=O)NCCC(=O)O [3-Ureidopropionic acid] | 1.13
N=C1CCCN1Cc1[nH]c(=O)[nH]c(=O)c1Cl [Tipiracil hydrochloride] | 1.14
Nc1[nH]cnc2ncnc1-2 [Adenine hydrochloride] | 1.15
CC(C)(C)c1cnc(CSc2cnc(NC(=O)C3CCNCC3)s2)o1 | 0.636
CC(C)c1c(C(=O)Nc2ccccc2)c(-c2ccccc2)c(-c2ccc(F)cc2)n1CC[C@@H](O)C[C@@H](O)CC(=O)O [Atorvastatin Calcium] | 1.13
CNS(=O)(=O)c1ccccc1Nc1nc(Nc2ccc(N3CCN(C)CC3)cc2OC)ncc1Cl [ALK inhibitor 2] | 0.448
CCN[C@H]1CN(CCCOC)S(=O)(=O)c2sc(S(N)(=O)=O)cc21 [Brinzolamide] | 1.11
CC(C)Oc1ccc(-c2c[nH]cc2CN(C)CCN)cc1 | 1.05
CC(=O)OCC(=O)[C@@]1(O)CC[C@H]2[C@@H]3CCC4=CC(=O)C=C[C@]4(C)[C@@]3(Cl)[C@@H](Cl)C[C@@]21C [Dichlorisone Acetate] | 0.809
COC(=O)Nc1nc2cc(C(=O)c3cccs3)ccc2[nH]1 [Nocodazole] | 0.325
Cc1ccc(C(=O)c2ccc(CC(=O)O)n2C)cc1 [Tolmetin] | 1.26
FC(F)(F)C(Cl)Br (stereo not drawn) [Anestan] | 1.09
O=C(O)CCCCCCCC(=O)O [Azelaic acid] | 1.25
COc1cc(Br)c(Nc2nc(-c3c(C)nc4ncccn34)cs2)c(Br)c1 | 1.04
CC(=Cc1ccc(C(=O)O)cc1)c1ccc2c(c1)C(C)(C)CCC2(C)C | 0.616
O=C(Nc1ccc(O)c(C(=O)O)c1)c1cccc(NC(=O)c2ccco2)c1 | 1.12
O=C(Nc1cccc(C(F)(F)F)c1)c1cccc2cc(Oc3cc(CO)ncn3)ccc12 | 1.09
CC(C)(O)[C@H]1CC[C@@](C)([C@H]2[C@@H](O)C[C@@]3(C)[C@@H]4C[C@H](O[C@@H]5O[C@H](CO)[C@@H](O)[C@H](O)[C@H]5O)[C@H]5C(C)(C)[C@@H](O[C@@H]6OC[C@@H](O)[C@H](O)[C@H]6O)CC[C@@]56C[C@@]46CC[C@]23C)O1 [Astragaloside A] | 1.12
Nc1nc(Nc2ccc3c(c2)CC[C@@H](N2CCCC2)CC3)nn1-c1cc2c(nn1)-c1ccccc1CCC2 [Bemcentinib] | 1.12
Cc1nccnc1N1CCCCC1 [Modaline sulfate] | 1.03

SMILES | cell viability
CN(CC(=O)N(Cc1ccc(C2CCCCC2)cc1)c1ccc(C(=O)O)c(O)c1)S(=O)(=O)c1c(F)c(F)c(F)c(F)c1F | 1.01
CN1CCN(C(=O)/C=C/c2ccc([N+](=O)[O-])o2)CC1 | 1.03
CC(=O)S[C@@H]1CC2=CC(=O)CC[C@]2(C)[C@H]2CC[C@@]3(C)[C@@H](CC[C@@]34CCC(=O)O4)[C@H]12 [Abbolactone] | 1.15
O=S(=O)(c1ccc2c(c1)C(=NO)c1cc(S(=O)(=O)N3CCCCC3)ccc1-2)N1CCCCC1 | 1
C#Cc1cccc(Nc2ncnc3cc(OC)c(OCCCCCCC(=O)NO)cc23)c1 | 1.17
COc1cccc2c1c(O)c(C(=O)N(C)c1ccc(C(F)(F)F)cc1)c(=O)n2C [Tasquinimod] | 1.06
CC(=O)Nc1ccc(C(=O)Nc2ccccc2N)cc1 | 0.968
O=C(O)[C@]1(Cc2cccc(Nc3nccs3)n2)CC[C@@H](Oc2cccc(Cl)c2F)CC1 | 0.832
CC(Cc1cccc(C(F)(F)F)c1)NCCOC(=O)c1ccccc1 (stereo not drawn) [Benfluorex hydrochloride] | 0.854
COc1cc2c(NC3CCN(C(C)C)CC3)nc(C3CCCCC3)nc2cc1OCCCN1CCCC1 | 1.18
C[C@@H](CC[C@@]1(O)O[C@H]2C[C@H]3[C@@H]4CC[C@@H]5C[C@@H](O[C@@H]6O[C@H](CO)[C@H](O)[C@H](O)[C@H]6O[C@@H]6O[C@H](CO)[C@@H](O)[C@H](O)[C@H]6O)CC[C@]5(C)[C@H]4CC[C@]3(C)[C@H]2[C@@H]1C)CO[C@@H]1O[C@H](CO)[C@@H](O)[C@H](O)[C@H]1O [Timosaponin BII] | 1.09
CC(C)Oc1ccc(-c2nc(-c3cccc4c3CC[C@@H]4NCCO)no2)cc1C#N [Ozanimod] | 1.15
CN1CCC(=C2c3ccccc3C=Cc3ccccc32)CC1 [Cyproheptadine hydrochloride] | 1.23
CO[C@H]1/C=C/O[C@@]2(C)Oc3c(C)c(O)c4c(O)c(c(/C=N/N5CCN(C6CCCC6)CC5)c(O)c4c3C2=O)NC(=O)/C(C)=C\C=C\[C@H](C)[C@H](O)[C@@H](C)[C@@H](O)[C@@H](C)[C@H](OC(C)=O)[C@@H]1C [Rifapentine] | 1.06
O=c1[nH]c(C2CCCN2)nc2c1oc1ccc(Cl)cc12 (stereo not drawn) [XL413 hydrochloride] | 1.01
N=C(N)NC(=N)NCCc1ccccc1 [Phenformin hydrochloride] | 1.39
C[C@H]1O[C@H](O[C@H]2[C@H](O)[C@@H](O)[C@@H](O[C@H]3[C@H](O)[C@@H](O)C(O)O[C@@H]3CO)O[C@@H]2CO)[C@H](O)[C@@H](O)[C@@H]1N[C@H]1C=C(CO)[C@@H](O)[C@H](O)[C@H]1O (stereo partly drawn) [Acarbose] | 1.03
C[C@@H](Oc1ccc2[nH]nc(/C=C/c3cnn(CCO)c3)c2c1)c1c(Cl)cncc1Cl | 0.429
CC[C@H]1[C@@H](O)[C@@H]2[C@H](CC[C@]3(C)[C@@H]([C@H](C)CCC(=O)O)CC[C@@H]23)[C@@]2(C)CC[C@@H](O)C[C@@H]12 [Obeticholic Acid] | 0.963
CC1(C)CC[C@]2(C(=O)O)CC[C@]3(C)C(=CC[C@@H]4[C@@]5(C)CC[C@H](O[C@@H]6O[C@H](C(=O)O)[C@@H](O)[C@H](O[C@@H]7OC[C@@H](O)[C@H](O)[C@H]7O)[C@H]6O)C(C)(C)[C@@H]5CC[C@]43C)[C@@H]2C1 [Momordin Ic] | 1.1
CNC1CCCN(c2c(F)cc3c(=O)c(C(=O)O)cn(C4CC4)c3c2OC)C1 (stereo not drawn) [Balofloxacin] | 1.08
Cc1ccc(/C(=C\CN2CCCC2)c2ccccn2)cc1 [Triprolidine hydrochloride] | 1.07
C=C1/C(=C\C=C2/CCC[C@]3(C)[C@@H]([C@H](C)CCCC(C)(C)O)CC[C@@H]23)C[C@@H](O)C[C@@H]1O [Calcitriol] | 0.818
